# According to PubChem BioAssay AID1671194 (National Center for Advancing Translational Sciences (NCATS), 2021):
# In all, about 140,000 compounds went through this assay and about 240 (0.17%) were called active. Inconclusive means that the source gave no clear call. Such entries were picked first, then a sample of the others. Calls come from the whole dose curve; as a rule, active = well fitted inhibition curve with a large enough effect; inconclusive = small, poorly fitted or top-dose-only effect; inactive = no such curve, though single readings can be large or run the other way. A potency beside an inconclusive call is a rough fit, not a confirmed value.
# Assay: Primary qHTS assay for inhibitors of alpha-synuclein gene (SNCA) expression; note: nearly all actives have a fitted effect of over 45% in size;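 for activity change, negative = inhibition: plate controls were DMSO cells for no effect and cell-free wells for full effect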
# Settings: HEK-293 SNCA-luciferase knock-in, luminescence, 24 h; activity change, negative = inhibition: at 57.2 µM (top of the series) unless noted
# Potency is the fitted concentration of half-maximal effect; tags give direction and shape of the fitted curve.
SMILES,Potency,"activity change, negative = inhibition"
Cc1ccc2nc(NC(=O)C3CC(=O)N(c4n[nH]c5cccc(F)c45)C3)sc2c1 (stereo unspecified),"inconclusive: 11.2 µM [inhibitor, partial curve, poor fit]",
CCn1cc(S(=O)(=O)N2CC[C@@H]3COCCN(C)[C@@H]3C2)cn1,"inconclusive: 3.98 µM [inhibitor, single point]",
O=C1NCCCCCCN(C(=O)c2cnccn2)[C@H]2C[C@H](C(=O)N3CCc4ccccc4C3)C[C@@H]12,"inconclusive: 15.8 µM [inhibitor, partial curve, poor fit]",
COc1ccccc1CNC(=O)CSc1ncc2c(n1)-c1ccccc1N(Cc1ccc(C)cc1)S2(=O)=O,"inconclusive: 39.8 µM [inhibitor, single point]",
COc1ccccc1-c1cccc(CN2CCC(NC(=O)NC3CCCC3)CC2)c1,,inactive: -1.74%
COc1ccc(-n2cc(-c3ccccc3)c3c(SC(C)C(C)=O)ncnc32)cc1 (stereo unspecified),"inconclusive: 3.55 µM [inhibitor, single point]",
CCOC(=O)c1cccc(NC(=O)c2cc3c(Cl)nc4ccc(C)cc4c3s2)c1,"inconclusive: 7.08 µM [inhibitor, single point]",
CCCc1noc(-c2cccn3c(CNC(=O)c4ccc(OC)cc4)nnc23)n1,,inactive: -18.2%
CCCCc1nc2cc(C(=O)N3CCCC3c3cc(C(C)C)on3)ccc2o1 (stereo unspecified),"inconclusive: 35.5 µM [inhibitor, single point]",
CCc1nc2c(c(-c3ccc(Cl)cc3)n1)CN([S+](=O)([O-])c1cccc(C(F)(F)F)c1)CC2,"inconclusive: 20 µM [inhibitor, single point]",
Cc1cc(C)cc(NS(=O)(=O)c2ccc3[nH]cc(C(=O)NCc4ccccc4Cl)c(=O)c3c2)c1,"inconclusive: 35.5 µM [inhibitor, single point]",
CCc1c(-c2ccccc2)nc2ccccc2c1C(=O)NCc1ccc(C)cc1,"inconclusive: 31.6 µM [inhibitor, single point]",
CC(C)C[C@@H]1N[C@H](C(=O)NCc2cccs2)Cc2cn(CC3CC3)c3cccc1c23,,inactive: -5.63% [at 87.6 µM]
O=C(CN1C(=O)COc2ccc(S(=O)(=O)Nc3ccccc3)cc21)Nc1cccc(Cl)c1,"inconclusive: 39.8 µM [inhibitor, single point]",
Cc1ccc(C)c(S(=O)(=O)N2CCC(n3cnnc3C(C)C)CC2)c1,"inconclusive: 28.2 µM [inhibitor, partial curve, poor fit]",
O=C(Nc1ccc(Br)cc1F)N1CCC2(CC1)Oc1ccccc1C(=O)N2Cc1ccccc1F,"inconclusive: 7.08 µM [inhibitor, single point]",
O=C(C1CCN(c2nccc(Nc3ccccc3Cl)n2)CC1)N1CCC(c2ccccc2)CC1,"inconclusive: 2.51 µM [inhibitor, full curve]",
Cc1ccc(-c2cc(C(=O)N3CCC(c4nc(CCOCC5CC5)no4)C3)[nH]n2)cc1 (stereo unspecified),"inconclusive: 35.5 µM [inhibitor, single point]",
COc1ccc(NC(=O)[C@@H]2C[C@@H](O)CN2C2CCN(C(=O)c3cccc(OC)c3)CC2)cc1,"inconclusive: 39.8 µM [inhibitor, single point]",
O=C(CCCc1c[nH]c2ccccc12)N1CCc2c(nc3cc(-c4ccccc4)[nH]n3c2=O)C1,,inactive: -8.77%
COc1ccc(-c2cn3cccnc3n2)cc1NC(=O)c1cc(C)cc(C)c1,"inconclusive: 0.398 µM [inhibitor, full curve, poor fit]",

SMILES,Potency,"activity change, negative = inhibition"
CCOC(=O)c1ccc(NC(=O)c2ccc(=O)n(Cc3cccc(C)c3)c2)cc1,"inconclusive: 15.8 µM [inhibitor, partial curve, poor fit]",
Cc1nc(-c2ccc(F)cc2)n(CC(=O)Nc2ccc(C(C)C)cc2)c(=O)c1CCO,"inconclusive: 39.8 µM [inhibitor, single point]",
COc1cccc(NC(=O)C2CCN(c3cn[nH]c(=O)c3)C2)c1 (stereo unspecified),,inactive: 24%
O=C(NC1C[C@H]2CC[C@@H](C1)N2C(=O)CCCc1ccccc1)c1ccc(F)cc1 (stereo partly specified),"inconclusive: 39.8 µM [inhibitor, single point]",
CCCC(=O)N1Cc2ccccc2CC2(CCCN(Cc3ccccc3)C2)C1 (stereo unspecified),"inconclusive: 25.1 µM [inhibitor, partial curve, poor fit]",
CN1CCN(S(=O)(=O)c2ccc(F)cc2)CC12CCNC(=O)CC2 (stereo unspecified),"inconclusive: 17.8 µM [inhibitor, single point]",
Cc1cccc(CN2CCC3(CC2)OC(=O)N(Cc2cccnc2)C3(C)c2ccccc2)c1 (stereo unspecified),"inconclusive: 25.1 µM [inhibitor, single point]",
O=C(CCC1CCN(c2cc(NC3CC3)ncn2)CC1)N1CCN(c2ccccc2F)CC1,"inconclusive: 8.91 µM [inhibitor, partial curve]",
COc1cc(OC)c(NS(=O)(=O)c2cc(-c3cnc(C4CC4)o3)ccc2C)cc1Cl,"inconclusive: 39.8 µM [inhibitor, single point]",
Cc1oc(C(O)c2cncnc2)nc1C(=O)Nc1cccc([S+](C)(=O)[O-])c1 (stereo unspecified),"inconclusive: 56.2 µM [inhibitor, single point]",
COCC(=O)NC1CCC12CCN(C(=O)C1(c3ccccc3)CC1)CC2 (stereo unspecified),"inconclusive: 39.8 µM [inhibitor, single point]",
O=C(NCc1ccc(F)cc1F)C1CCN(C(=O)c2ccc(-c3cncnc3)cc2)CC1,,inactive: 0.709%
CC(C)Oc1ccc2c(NC(=O)c3cccnn3)nn(CC(F)(F)F)c2c1,"inconclusive: 3.16 µM [inhibitor, full curve]",
COc1cccc(CN2C(=O)CCCCC2C(=O)NCCCN2CCc3ccccc3C2)c1 (stereo unspecified),"inconclusive: 8.91 µM [inhibitor, single point]",
COc1cc2c(cc1OC)C(COc1cc(C)cc(C)c1)N(C(=O)COc1ccccc1)CC2 (stereo unspecified),"inconclusive: 39.8 µM [inhibitor, single point]",
COc1ccc(-c2nc3cc(C)ccc3cc2CN2CCC[C@@H]2CO)cc1OC,,inactive: -8.52%
Cc1ccc(C(=O)N2CCn3c(nnc3-c3ccncc3)C2)cc1,"inconclusive: 7.08 µM [inhibitor, single point]",
NC(=O)c1cccnc1N1CCC2(CCCN(Cc3ccccc3F)C2)C1 (stereo unspecified),,inactive: -7.01%
CC1Oc2ccc(NC(=O)CC(C)(C)C)cc2CN(Cc2ccccc2F)C1=O (stereo unspecified),,inactive: -1.39%
O=C([C@@H]1C[C@H](Oc2ccccc2)CN1C(=O)CCCc1ccccc1)N1CCCC1,,inactive: 3.47%
Cc1ccc(Nc2ccnc(N3CCC(C(=O)NCC(F)(F)F)CC3)n2)cc1,,inactive: 19.2%

SMILES,Potency,"activity change, negative = inhibition"
O=C(CN1CCCc2nc(-c3ccncc3)ncc2C1=O)NCCN1CCOCC1,"inconclusive: 8.91 µM [inhibitor, single point]",
O=C(NC1C[C@H]2CC[C@@H](C1)N2C(=O)COc1ccccc1)c1ccncc1 (stereo partly specified),"inconclusive: 3.55 µM [inhibitor, single point]",
COc1ccc(-c2ccccc2)cc1N1C(=O)[C@@H]2C[C@H]1CN2C(=O)[C@H]1CCCN1,"inconclusive: 7.08 µM [inhibitor, single point]",
Cc1ccc([S+](=O)([O-])NC[C@@H]2CC[C@H]3C[C@@H]2C3(C)C)cc1,"inconclusive: 31.6 µM [inhibitor, single point]",
CC1(C(=O)NCc2cccnc2)CCc2cnc(Nc3ccccc3)nc21 (stereo unspecified),"inconclusive: 22.4 µM [inhibitor, partial curve, poor fit]",
COc1ccccc1N1CCN(C(=O)CSc2nc3ccccc3nc2Cc2ccccc2)CC1,"inconclusive: 10 µM [inhibitor, partial curve]",
CCCN(CCC)S(=O)(=O)c1ccc2c(c1)N(CC(=O)NC(C)c1ccccc1)C(=O)CS2 (stereo unspecified),"inconclusive: 39.8 µM [inhibitor, single point]",
CCOc1ccc(NC(=O)CCS(=O)(=O)c2cccc3nonc23)cc1,"inconclusive: 7.08 µM [inhibitor, single point]",
NC(=O)COc1ccc(C(=O)N[C@@H]2CN(C(=O)NC3CCCCC3)CCC[C@H]2O)cc1,"inconclusive: 12.6 µM [inhibitor, single point]",
CC(=O)Nc1ccc(C(=O)N2CCCN(c3cc(-c4ccc(Cl)cc4)[nH]n3)CC2)cc1,,inactive: 2.63%
COCCC1(NS(C)(=O)=O)CCN(S(=O)(=O)c2ccc3c(c2)OCCO3)CC1,"inconclusive: 8.91 µM [inhibitor, single point]",
COc1ccc(/C=C/C(=O)Nc2sc3c(c2C(N)=O)CCC(C)C3)cc1OC (stereo unspecified),"inconclusive: 39.8 µM [inhibitor, single point]",
Cc1ccc(-c2nnc3ccc(N4CCCCC4)nn23)nc1,,inactive: 1.98% [at 87.6 µM]
Cc1ncoc1C(=O)N1CCC([C@H]2[C@@H](Oc3ccccc3)CN2C(C)C)CC1,,inactive: 22.7%
CCn1ncc(N2CCCC(CC(=O)NCc3cccc(F)c3)C2)cc1=O (stereo unspecified),,inactive: 10.5%
Cc1cc(C)cc(-c2ccc(CN3CCCC3C(=O)NCC(F)(F)F)cc2)c1 (stereo unspecified),"inconclusive: 39.8 µM [inhibitor, single point]",
Cn1ncc(C(=O)N2CCN(c3ccc(F)cc3)CC2)c1C1CCN(C(=O)OC(C)(C)C)CC1,"inconclusive: 0.891 µM [inhibitor, full curve, poor fit]",
COc1ccc(C(=O)N2CC[C@@H]3CN(S(C)(=O)=O)[C@@H]3C2)cn1,"inconclusive: 20 µM [inhibitor, partial curve, poor fit]",
Cc1ccc(C(=O)N2CCN(C(=O)c3nnn4c3COC(c3ccccc3)C4)CC2)c(C)c1 (stereo unspecified),"inconclusive: 11.2 µM [inhibitor, partial curve, poor fit]",
